In US6645774B1 (Synaptic Pharmaceutical Corporation, priority 1994, dated 2003):

Experiments:
[1] = target: T1, human Y5 receptor (Homo sapiens, UniProt Q15761); assay: Radioligand binding to human Y5 receptor stably expressed in LM(tk-) cells; details: read-out: Binding Affinity (Ki (nM) vs. ^125I-PYY) Human Receptor Y5; stably transfected cells, compounds
T1 sequence (Q15761 1-445): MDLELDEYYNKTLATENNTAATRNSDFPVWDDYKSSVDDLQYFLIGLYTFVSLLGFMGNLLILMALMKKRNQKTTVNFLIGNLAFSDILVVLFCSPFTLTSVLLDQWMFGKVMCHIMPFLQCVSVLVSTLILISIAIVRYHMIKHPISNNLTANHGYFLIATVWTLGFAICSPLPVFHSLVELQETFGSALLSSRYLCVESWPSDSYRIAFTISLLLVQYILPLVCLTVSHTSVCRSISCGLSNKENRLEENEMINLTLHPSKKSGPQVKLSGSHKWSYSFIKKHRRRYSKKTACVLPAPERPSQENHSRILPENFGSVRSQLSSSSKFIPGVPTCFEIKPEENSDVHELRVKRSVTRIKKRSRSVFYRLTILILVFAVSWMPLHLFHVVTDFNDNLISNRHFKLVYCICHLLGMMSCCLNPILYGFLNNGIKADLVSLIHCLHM

[2] = target: T1, human Y5 receptor; assay: Radioimmunoassay of forskolin-stimulated cAMP, LM(tk-) cells stably expressing human Y5; type: cell-based; set-up: apparent Kd; pKd; other: human Y5 in COS-7, n=4; The isolated clone (CG-19) turned out to contain a full length cDNA cloned in the correct orientation for functional expression; The longest open reading frame encodes a 455 amino acid protein; details: block of NPY-induced inhibition of cAMP; compound 28: preliminary experiments
[3] = target: rat Y5 receptor; assay: Radioligand binding to cloned rat Y5 receptor (COS-7 membranes); details: cloned rat Y-type receptors; expression system not given
[4] = tested on: rat Y5 receptor; assay: Radioimmunoassay of forskolin-stimulated cAMP, 293 cells stably expressing rat Y5
[5] = target: T1, human Y5 receptor; assay: ^125I-PYY binding to cloned human Y5 receptor (COS-7 membranes); set-up: apparent Kd; pKd; other: human Y5 in COS-7, n=4; The isolated clone (CG-19) turned out to contain a full length cDNA cloned in the correct orientation for functional expression; The longest open reading frame encodes a 455 amino acid protein; details: cloned human Y-type receptors; expression system not given
[6] = tested on: human Y5 receptor; assay: Radioligand binding to human Y5 receptor stably expressed in LM(tk-) cells; details: 1 nM to 100 μM, over the entire concentration range, 0.08 nM ^125I-PYY
[7] = tested on: human Y5 receptor; assay: Radioimmunoassay of forskolin-stimulated cAMP, LM(tk-) cells stably expressing human Y5; type: cell-based; details: forskolin, suspended and replated LM(tk-) with human Y5, n=87
[8] = tested on: human Y5 receptor; assay: Radioimmunoassay of forskolin-stimulated cAMP, NIH-3T3 cells stably expressing human Y5; type: cell-based; details: 10 uM forskolin, NIH-3T3 with human Y5, n=2

With “2-(Naphthalen-1-yl)-3-phenylpropane-1,2-diamine [Compound 28]” the Ki [1] was 19000 nM and the “functional character at the human Y5 receptor” value [2] was “Y5 receptor antagonist”.

In the case of `NC(N)=NCCC[C@@H](NC(=O)C(c1ccccc1)c1ccccc1)C(=O)NCc1ccc(O)cc1` [BIBP 3226], the Ki [3] is reported as 25 µM, the “antagonism of NPY- or PP-induced activation” value ([4]; rat Y5, concentrations up to 1 μM) is reported as “no evidence for antagonism” and the Ki [5] is reported as 49 µM.

`Nc1nc2c(ncn2[C@@H]2O[C@H](COP(=O)(O)OP(=O)(O)NP(=O)(O)O)[C@@H](O)[C@H]2O)c(=O)[nH]1` [Gpp(NH)p, reference compound] was tested, and the “change in ^125I-PYY radioligand binding” value [6] was −85 fmol/mg membrane protein.

In the case of `C=C[C@@]1(C)CC(=O)[C@]2(O)[C@@]3(C)[C@@H](O)CCC(C)(C)[C@@H]3[C@H](O)[C@H](OC(C)=O)[C@@]2(C)O1` [forskolin], the “increase in cAMP accumulation” value ([4]; 10 μM forskolin, 5 minute period, 293 cells with rat Y5) is reported as 10 fold, the “average increase in [cAMP]” value [7] is reported as 7.4 fold and the “average increase in [cAMP]” value [8] is reported as 21 fold.
